The record followed here is patent US20120141501A1 (Chugai, published 2012).

For the experiment, the target named is T1, soluble EGFR-Fc protein.
T1 construct: Captured on a plate coated with an anti-human antibody; also called soluble EGFR protein; EGFR protein
The experiment can be described thus: ELISA on captured EGFR-Fc (FIG. 11a). (In an ELISA, binding on a coated surface is turned into a signal by an enzyme label.)

B1: biotinylated thioredoxin/mature human TGFα fusion protein (ligand)
chain: not shown
modifications: biotinylated (Biotin Protein Labeling Kit, Roche Diagnostics); sites not stated
notes: also called TrxTGFA; biotinylated TrxTGFA
For the molecule B1, the binding result is “binds”.
